Patent publication US20220127334A1 (Takeda / Millennium, published 2022)

Target: trypsin (Examples 7 and 8, source not stated)
Experiment: cell-based or functional assay

IC50 of inhibition of trypsin-induced IL-6 production in BEAS2B cells: 0.41 µg/mL
B1: UTI-Fc1 (SEQ ID NO:1) (Fc fusion)
chain: AVLPQEEEGSGGGQLVTEVTKKEDSCQLGYSAGPCMGMTSRYFYNGTSMACETFQYGGCMGNGNNFVTEKECLQTCRTVAACNLPIVRGPCRAFIQLWAFDAVKGKCVLFPYGGCQGNGNKFYSEKECREYCGVPGDGDEELLGSGGGG[human IgG1 Fc omitted here]
